The source of these data is the supplement of paper PMC4604168 (melanoma cell lines).

The list shows a part of the results. Single values are uncertain, as repeats are few or missing.

Some test systems named below: WM115; WM1716; WM1745; WM3526; WM3619; WM451Lu.
Holding throughout (test): cell count relative to DMSO control; melanoma cells; higher = more viable cells
What all share (conditions): library dose: low library concentration; 72 h
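Further: cell number obtained by counting DAPI-stained nuclei in high-throughput microscope images with image analysis software, screen run in 1,536-well plates.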

For the compound `CS(=O)(=O)c1ccc(C(=O)Nc2ccc(Cl)c(-c3ccccn3)c2)c(Cl)c1` [vismodegib] + CCCCCCCCc1ccc(CCC(N)(CO)CO)cc1 [fingolimod] (first compound 1 µM, partner dose 2 µM), the cell count in the experiment on WM115 was determined as 86.8%; in the experiment with WM1716, 89.2%; in the experiment with WM1745, 87.4%; in the experiment on WM3526, 105%; in the experiment with WM3619, 89.4%; with WM451Lu, 98%.
On to `CN(c1ncccc1CNc1nc(Nc2ccc3c(c2)CC(=O)N3)ncc1C(F)(F)F)S(C)(=O)=O` + C=CCNC1=C2C[C@@H](C)C[C@H](OC)[C@H](O)[C@@H](C)/C=C(\C)[C@H](OC(N)=O)[C@@H](OC)/C=C\C=C(/C)C(=O)NC(=CC1=O)C2=O [Tanespimycin] (first compound 0.08 µM, partner dose 0.002 µM), for which the cell count was 65.4% with WM115; 85.5% in the experiment on WM1716; 84.9% with WM1745; 112% in the experiment with WM3526; 95.3% with WM3619; 63.5% with WM451Lu.
Turning to `NC1(c2ccc(-c3nc4ccn5c(=O)[nH]nc5c4cc3-c3ccccc3)cc2)CCC1` + Cn1nnc2c(C(N)=O)ncn2c1=O [temozolomide] (first compound 0.4 µM, partner dose 2 µM), the cell count with WM115 worked out at 73.1%; in the experiment with WM1716, 98%; in the experiment with WM1745, 82.6%; in the experiment with WM3526, 70.5%; with WM3619 it was 70%; in the experiment on WM451Lu it was 101%.
With `CN(c1ncccc1CNc1nc(Nc2ccc3c(c2)CC(=O)N3)ncc1C(F)(F)F)S(C)(=O)=O` + CO[C@@H]1[C@H](N(C)C(=O)c2ccccc2)C[C@H]2O[C@]1(C)n1c3ccccc3c3c4c(c5c6ccccc6n2c5c31)C(=O)NC4 [Midostaurin] (first compound 0.08 µM, partner dose 0.08 µM), the cell count turned out to be 72.5% in the experiment on WM115; 75.5% in the experiment on WM1716; 75.3% in the experiment on WM1745; 104% in the experiment on WM3526; 57.7% with WM3619; 80.1% in the experiment on WM451Lu.
As to `CCCS(=O)(=O)Nc1ccc(F)c(C(=O)c2c[nH]c3ncc(Cl)cc23)c1F` + Nc1nc(F)nc2c1ncn2[C@@H]1O[C@H](CO)[C@@H](O)[C@@H]1O [fludarabine] (first compound 0.08 µM, partner dose 0.2 µM), the cell count turned out to be 95.8% in the experiment on WM115; 125% with WM1716; 103% in the experiment with WM1745; 26.9% in the experiment with WM3526; 89.1% with WM3619; 45.4% with WM451Lu.
In the case of `CCCS(=O)(=O)Nc1ccc(F)c(C(=O)c2c[nH]c3ncc(Cl)cc23)c1F` + O=C(Nc1cccc(Cl)c1)Nc1ncc(CCNc2ncnc3ccsc23)s1 [SNS314] (first compound 0.08 µM, partner dose 0.0008 µM), the cell count in the experiment on WM115 was 98%; in the experiment with WM1716, 111%; in the experiment on WM1745 it was 89.6%; in the experiment on WM3526, 68.3%; in the experiment with WM3619, 91.7%; in the experiment on WM451Lu, 117%.
With `CS(=O)(=O)c1ccc(C(=O)Nc2ccc(Cl)c(-c3ccccn3)c2)c(Cl)c1` [vismodegib] + COc1cc(Nc2ncc(F)c(Nc3ccc4c(n3)NC(=O)C(C)(C)O4)n2)cc(OC)c1OC [Tamatinib] (first compound 1 µM, partner dose 0.4 µM), the cell count in the experiment on WM115 came out at 80.8%; in the experiment on WM1716, 87.6%; in the experiment with WM1745 it was 73.2%; in the experiment on WM3526, 88.5%; with WM3619, 89.9%; in the experiment with WM451Lu, 85.5%.
As to `NC1(c2ccc(-c3nc4ccn5c(=O)[nH]nc5c4cc3-c3ccccc3)cc2)CCC1` + CC1(C)NC(=O)N(c2ccc([N+](=O)[O-])c(C(F)(F)F)c2)C1=O [nilutamide] (first compound 0.4 µM, partner dose 1 µM), the cell count in the experiment on WM115 is 78.2%; in the experiment with WM1716, 118%; in the experiment on WM1745, 95.8%; in the experiment with WM3526, 77%; in the experiment on WM3619, 105%; in the experiment with WM451Lu it was 105%.
`CCCS(=O)(=O)Nc1ccc(F)c(C(=O)c2c[nH]c3ncc(Cl)cc23)c1F` + Cn1cc(/C=C2\C(=O)Nc3cccnc32)c2ccccc21 [GW441756] (first compound 0.08 µM, partner dose 0.4 µM): the cell count with WM115 turned out to be 97.5%; in the experiment on WM1716, 115%; in the experiment on WM1745 it was 90.9%; in the experiment with WM3526 it was 73.4%; with WM3619, 85.9%; in the experiment with WM451Lu, 98.7%.
Take `CS(=O)(=O)c1ccc(C(=O)Nc2ccc(Cl)c(-c3ccccn3)c2)c(Cl)c1` [vismodegib] + NC(=O)Nc1cc(-c2cccc(F)c2)sc1C(=O)N[C@H]1CCCNC1 [AZD7762] (first compound 1 µM, partner dose 0.02 µM): the cell count with WM115 is 98.7%; with WM1716, 113%; in the experiment with WM1745 it was 103%; in the experiment on WM3526 it was 83.7%; in the experiment on WM3619, 59.7%; in the experiment on WM451Lu, 89.9%.
With `NC1(c2ccc(-c3nc4ccn5c(=O)[nH]nc5c4cc3-c3ccccc3)cc2)CCC1` + CO[C@@H]1[C@H](N(C)C(=O)c2ccccc2)C[C@H]2O[C@]1(C)n1c3ccccc3c3c4c(c5c6ccccc6n2c5c31)C(=O)NC4 [Midostaurin] (first compound 0.4 µM, partner dose 0.08 µM), the cell count was found to be 65.9% with WM115; 68.8% in the experiment with WM1716; 53.7% in the experiment with WM1745; 53.3% in the experiment with WM3526; 87.3% with WM3619; 129% with WM451Lu.
As to `NC1(c2ccc(-c3nc4ccn5c(=O)[nH]nc5c4cc3-c3ccccc3)cc2)CCC1` + Cc1nc(Nc2ncc(C(=O)Nc3c(C)cccc3Cl)s2)cc(N2CCN(CCO)CC2)n1 [dasatanib] (first compound 0.4 µM, partner dose 0.004 µM), the cell count in the experiment on WM115 was found to be 57.1%; in the experiment on WM1716, 86.9%; in the experiment on WM1745, 65.5%; with WM3526, 68.2%; in the experiment on WM3619 it was 94.6%; with WM451Lu it was 90.1%.
Take `CN(c1ncccc1CNc1nc(Nc2ccc3c(c2)CC(=O)N3)ncc1C(F)(F)F)S(C)(=O)=O` + COc1cc(N2CCC(N3CCN(C)CC3)CC2)ccc1Nc1ncc(Cl)c(Nc2ccccc2S(=O)(=O)C(C)C)n1 [NVP-TAE684] (first compound 0.08 µM, partner dose 0.08 µM): the cell count was found to be 77.5% in the experiment on WM115; 83.5% with WM1716; 84.5% in the experiment with WM1745; 97.6% in the experiment on WM3526; 95.5% in the experiment with WM3619; 95.1% in the experiment on WM451Lu.
With `CN(c1ncccc1CNc1nc(Nc2ccc3c(c2)CC(=O)N3)ncc1C(F)(F)F)S(C)(=O)=O` + Cn1c(Nc2ccc(C(F)(F)F)cc2)nc2cc(Oc3ccnc(-c4ncc(C(F)(F)F)[nH]4)c3)ccc21 [CHIR265] (first compound 0.08 µM, partner dose 0.08 µM), the cell count in the experiment with WM115 worked out at 58%; in the experiment on WM1716 it was 79.2%; in the experiment with WM1745, 42.2%; in the experiment with WM3526, 57.9%; with WM3619, 61.6%; in the experiment on WM451Lu, 82%.
As to `C=C(c1ccc(C(=O)O)cc1)c1cc2c(cc1C)C(C)(C)CCC2(C)C` [Bexarotene] + Cc1cc(N2CCOCC2)cc2[nH]c(-c3c(NC[C@@H](O)c4cccc(Cl)c4)cc[nH]c3=O)nc12 [BMS536924] (first compound 2 µM, partner dose 0.2 µM), the cell count in the experiment on WM115 came to 99.5%; in the experiment with WM1716 it was 90.7%; with WM1745, 57%; with WM3526 it was 84.3%; in the experiment with WM3619, 98.8%; in the experiment with WM451Lu, 116%.
Take `NC1(c2ccc(-c3nc4ccn5c(=O)[nH]nc5c4cc3-c3ccccc3)cc2)CCC1` + C=CCn1c(=O)c2cnc(Nc3ccc(N4CCN(C)CC4)cc3)nc2n1-c1cccc(C(C)(C)O)n1 [MK1775] (first compound 0.4 µM, partner dose 0.02 µM): the cell count worked out at 58.3% with WM115; 84.4% in the experiment on WM1716; 62.2% with WM1745; 59.3% in the experiment on WM3526; 98.7% in the experiment on WM3619; 112% in the experiment on WM451Lu.
Take `CN(c1ncccc1CNc1nc(Nc2ccc3c(c2)CC(=O)N3)ncc1C(F)(F)F)S(C)(=O)=O` + OCCn1cc(-c2cnc3nnn(Cc4ccc5ncccc5c4)c3n2)cn1 [PF04217903] (first compound 0.08 µM, partner dose 1 µM): the cell count with WM115 was found to be 78.5%; in the experiment on WM1716, 92.7%; in the experiment on WM1745 it was 84.5%; in the experiment on WM3526 it was 98%; with WM3619, 75.3%; in the experiment on WM451Lu it was 47.1%.
On to `CCCS(=O)(=O)Nc1ccc(F)c(C(=O)c2c[nH]c3ncc(Cl)cc23)c1F` + CCN(CC)CCCCNc1ncc2cc(-c3cc(OC)cc(OC)c3)c(NC(=O)NC(C)(C)C)nc2n1 [PD173074] (first compound 0.08 µM, partner dose 0.1 µM), for which the cell count with WM115 was found to be 98.4%; with WM1716 it was 116%; in the experiment with WM1745 it was 97.3%; with WM3526, 80.8%; in the experiment with WM3619 it was 115%; with WM451Lu, 177%.
In the case of `CS(=O)(=O)c1ccc(C(=O)Nc2ccc(Cl)c(-c3ccccn3)c2)c(Cl)c1` [vismodegib] + CNC(=O)c1cc(Oc2ccc(NC(=O)Nc3ccc(Cl)c(C(F)(F)F)c3)cc2)ccn1 [sorafenib] (first compound 1 µM, partner dose 0.4 µM), the cell count in the experiment on WM115 stood at 87.8%; with WM1716 it was 86.1%; with WM1745, 83.2%; in the experiment on WM3526, 79.8%; with WM3619, 111%; in the experiment with WM451Lu it was 122%.
Turning to `NC1(c2ccc(-c3nc4ccn5c(=O)[nH]nc5c4cc3-c3ccccc3)cc2)CCC1` + CN1CCN(c2ccc3nc(-c4c(N)c5c(F)cccc5[nH]c4=O)[nH]c3c2)CC1 [Dovitinib] (first compound 0.4 µM, partner dose 0.1 µM), the cell count with WM115 came to 71.7%; with WM1716 it was 89.1%; in the experiment on WM1745 it was 91.8%; in the experiment on WM3526, 62.5%; in the experiment on WM3619 it was 82.9%; in the experiment on WM451Lu it was 74.9%.
For `NC1(c2ccc(-c3nc4ccn5c(=O)[nH]nc5c4cc3-c3ccccc3)cc2)CCC1` + COC(=O)c1sccc1S(=O)(=O)Nc1ccc(Nc2ccccc2)cc1OC [GSK0660] (first compound 0.4 µM, partner dose 1 µM), the cell count in the experiment on WM115 amounted to 79.5%; in the experiment with WM1716 it was 95.1%; with WM1745, 96.3%; in the experiment on WM3526, 71.2%; in the experiment on WM3619, 110%; in the experiment on WM451Lu, 107%.
With `NC1(c2ccc(-c3nc4ccn5c(=O)[nH]nc5c4cc3-c3ccccc3)cc2)CCC1` + OCc1c[nH]c2ccccc12 [Indole-3-carbinol] (first compound 0.4 µM, partner dose 0.8 µM), the cell count was 80.8% in the experiment with WM115; 87.4% in the experiment with WM1716; 94.4% in the experiment on WM1745; 72.3% with WM3526; 87.8% with WM3619; 93.3% in the experiment on WM451Lu.
As for `NC1(c2ccc(-c3nc4ccn5c(=O)[nH]nc5c4cc3-c3ccccc3)cc2)CCC1` + N#Cc1c(O)c2c(-c3ccc(-c4ccccc4O)cc3)csc2[nH]c1=O [A769662] (first compound 0.4 µM, partner dose 2 µM), the cell count amounted to 74.9% in the experiment on WM115; 77.4% with WM1716; 103% in the experiment on WM1745; 58.8% with WM3526; 125% in the experiment on WM3619; 98.7% with WM451Lu.
In the case of `CS(=O)(=O)c1ccc(C(=O)Nc2ccc(Cl)c(-c3ccccn3)c2)c(Cl)c1` [vismodegib] + Cn1c(=O)n(-c2ccc(C(C)(C)C#N)cc2)c2c3cc(-c4cnc5ccccc5c4)ccc3ncc21 [NVP-BEZ235] (first compound 1 µM, partner dose 0.004 µM), the cell count in the experiment with WM115 was determined as 91.5%; with WM1716, 101%; in the experiment on WM1745, 102%; with WM3526 it was 106%; in the experiment with WM3619, 90.2%; in the experiment on WM451Lu, 98.7%.
With `C=C(c1ccc(C(=O)O)cc1)c1cc2c(cc1C)C(C)(C)CCC2(C)C` [Bexarotene] + Oc1cc(-c2nc(-c3ccccc3)[nH]c2-c2ccncc2)ccc1Cl [L779450] (first compound 2 µM, partner dose 0.2 µM), the cell count in the experiment on WM115 worked out at 93.2%; in the experiment on WM1716, 98.6%; with WM1745, 105%; with WM3526, 80.5%; with WM3619 it was 96.9%; in the experiment with WM451Lu, 99.5%.
